The other results are listed elsewhere or left out. Single values are uncertain, as repeats are few or missing.
How the values were obtained:
Test in all cases: cell count relative to DMSO control; melanoma cells; higher = more viable cells
Settings in all cases: library dose: standard library concentration; 72 h
A101D = test system: A101D
A2058 = test system: A2058
A375 = test system: A375
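Note: cells treated in 1,536-well plates, then fixed and DAPI-stained, with nuclei counted from automated high-throughput microscope images.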

Row | Structure (SMILES) | cell count (A101D) | cell count (A2058) | cell count (A375)
1 | O=C(/C=C/c1cccnc1)NCCCCC1CCN(C(=O)c2ccccc2)CC1 + O=C(CCCCCCC(=O)Nc1ccccc1)NO [vorinostat] (first compound 0.05 µM, partner dose 0.4 µM) | 67.2% | 78.7% | 117%
2 | CC1(C)CCC(c2ccc(Cl)cc2)=C(CN2CCN(c3ccc(C(=O)NS(=O)(=O)c4ccc(N[C@H](CCN5CCOCC5)CSc5ccccc5)c(S(=O)(=O)C(F)(F)F)c4)cc3)CC2)C1 + COc1cc(Nc2ncc(F)c(Nc3ccc4c(n3)NC(=O)C(C)(C)O4)n2)cc(OC)c1OC [Tamatinib] (first compound 2 µM, partner dose 2 µM) | 23.6% | 71% | 76.5%
3 | Cc1ccc(Nc2nccc(N(C)c3ccc4c(C)n(C)nc4c3)n2)cc1S(N)(=O)=O [Pazopanib] + Nc1nc(F)nc2c1ncn2[C@@H]1O[C@H](CO)[C@@H](O)[C@@H]1O [fludarabine] (first compound 2 µM, partner dose 1 µM) | 75.6% | 75% | 31.9%
4 | Cc1ccc(Nc2nccc(N(C)c3ccc4c(C)n(C)nc4c3)n2)cc1S(N)(=O)=O [Pazopanib] + COc1cc2c(Oc3ccc4[nH]c(C)cc4c3F)ncnc2cc1OCCCN1CCCC1 [cediranib] (first compound 2 µM, partner dose 2 µM) | 88.2% | 88.8% | 112%
5 | Cc1ccc(Nc2nccc(N(C)c3ccc4c(C)n(C)nc4c3)n2)cc1S(N)(=O)=O [Pazopanib] + CC(C)CCN1c2nc(Nc3cc(F)c(O)c(F)c3)ncc2N(C)C(=O)C1C [BID1870] (first compound 2 µM, partner dose 1 µM) | 52% | 98.8% | 89.5%
6 | CC1(C)CCC(c2ccc(Cl)cc2)=C(CN2CCN(c3ccc(C(=O)NS(=O)(=O)c4ccc(N[C@H](CCN5CCOCC5)CSc5ccccc5)c(S(=O)(=O)C(F)(F)F)c4)cc3)CC2)C1 + O=C(O)c1ccc2c(c1)nc(Nc1cccc(Cl)c1)c1ccncc12 [CX4945] (first compound 2 µM, partner dose 2 µM) | 33.9% | 68% | 39.1%
7 | O=C(/C=C/c1cccnc1)NCCCCC1CCN(C(=O)c2ccccc2)CC1 + C[C@@H]1CCN(C(=O)CC#N)C[C@@H]1N(C)c1ncnc2[nH]ccc12 [CP690550] (first compound 0.05 µM, partner dose 5 µM) | 67% | 89.9% | 106%
8 | CC1(C)CCC(c2ccc(Cl)cc2)=C(CN2CCN(c3ccc(C(=O)NS(=O)(=O)c4ccc(N[C@H](CCN5CCOCC5)CSc5ccccc5)c(S(=O)(=O)C(F)(F)F)c4)cc3)CC2)C1 + O=C(O)[C@@H]1[O][Sb](=[O])([O][Sb]2(=[O])[O][C@H]([C@H](O)CO)[C@H](O)[C@H](C(=O)O)[O]2)[O][C@H]([C@H](O)CO)[C@@H]1O [stibogluconate] (first compound 2 µM, partner dose 10 µM) | 35.4% | 101% | 56%
9 | Cc1ccc(Nc2nccc(N(C)c3ccc4c(C)n(C)nc4c3)n2)cc1S(N)(=O)=O [Pazopanib] + COc1cc(Nc2ncc(F)c(Nc3ccc4c(n3)NC(=O)C(C)(C)O4)n2)cc(OC)c1OC [Tamatinib] (first compound 2 µM, partner dose 2 µM) | 62.2% | 72.3% | 86.5%
10 | O=C(/C=C/c1cccnc1)NCCCCC1CCN(C(=O)c2ccccc2)CC1 + Cn1c(=O)n(-c2ccc(C(C)(C)C#N)cc2)c2c3cc(-c4cnc5ccccc5c4)ccc3ncc21 [NVP-BEZ235] (first compound 0.05 µM, partner dose 0.02 µM) | 66.5% | 44% | 70.9%
11 | O=C(/C=C/c1cccnc1)NCCCCC1CCN(C(=O)c2ccccc2)CC1 + Cn1cnc2c(F)c(Nc3ccc(Br)cc3Cl)c(C(=O)NOCCO)cc21 [selumetinib] (first compound 0.05 µM, partner dose 0.075 µM) | 70.1% | 92% | 97.7%
12 | CC1(C)CCC(c2ccc(Cl)cc2)=C(CN2CCN(c3ccc(C(=O)NS(=O)(=O)c4ccc(N[C@H](CCN5CCOCC5)CSc5ccccc5)c(S(=O)(=O)C(F)(F)F)c4)cc3)CC2)C1 + Clc1ccc(Nc2nnc(Cc3ccncc3)c3ccccc23)cc1 [vatalanib] (first compound 2 µM, partner dose 10 µM) | 24.2% | 67.3% | 30.9%
13 | O=C(/C=C/c1cccnc1)NCCCCC1CCN(C(=O)c2ccccc2)CC1 + C[C@@H](N)c1ccc(C(=O)Nc2ccnc3[nH]ccc23)cc1 [RKI983] (first compound 0.05 µM, partner dose 2 µM) | 68.5% | 76.3% | 77.2%
14 | CC1(C)CCC(c2ccc(Cl)cc2)=C(CN2CCN(c3ccc(C(=O)NS(=O)(=O)c4ccc(N[C@H](CCN5CCOCC5)CSc5ccccc5)c(S(=O)(=O)C(F)(F)F)c4)cc3)CC2)C1 + COc1ccc(Cl)c(Nc2nc3ccccc3nc2NS(=O)(=O)c2cccc(NC(=O)C(C)(C)N)c2)c1 [XL147] (first compound 2 µM, partner dose 4 µM) | 49.7% | 116% | 89.8%
15 | CC1(C)CCC(c2ccc(Cl)cc2)=C(CN2CCN(c3ccc(C(=O)NS(=O)(=O)c4ccc(N[C@H](CCN5CCOCC5)CSc5ccccc5)c(S(=O)(=O)C(F)(F)F)c4)cc3)CC2)C1 + NC(=O)c1ccc(N(C(N)=O)c2c(F)cccc2F)nc1-c1ccc(F)cc1F [VX702] (first compound 2 µM, partner dose 2 µM) | 47.2% | 110% | 59.8%
16 | O=C(/C=C/c1cccnc1)NCCCCC1CCN(C(=O)c2ccccc2)CC1 + Cc1cc(Nc2cc(N3CCN(C)CC3)nc(/C=C/c3ccccc3)n2)n[nH]1 [ENMD2076] (first compound 0.05 µM, partner dose 0.2 µM) | 73.7% | 94.2% | 89.1%
17 | CC1(C)CCC(c2ccc(Cl)cc2)=C(CN2CCN(c3ccc(C(=O)NS(=O)(=O)c4ccc(N[C@H](CCN5CCOCC5)CSc5ccccc5)c(S(=O)(=O)C(F)(F)F)c4)cc3)CC2)C1 + NC1(c2ccc(-c3nc4ccn5c(=O)[nH]nc5c4cc3-c3ccccc3)cc2)CCC1 [MK2206] (first compound 2 µM, partner dose 2 µM) | 32.4% | 78.5% | 54.5%
18 | Cc1ccc(Nc2nccc(N(C)c3ccc4c(C)n(C)nc4c3)n2)cc1S(N)(=O)=O [Pazopanib] + C=C(c1ccc(C(=O)O)cc1)c1cc2c(cc1C)C(C)(C)CCC2(C)C [Bexarotene] (first compound 2 µM, partner dose 10 µM) | 94.4% | 105% | 99.4%
19 | Cc1ccc(Nc2nccc(N(C)c3ccc4c(C)n(C)nc4c3)n2)cc1S(N)(=O)=O [Pazopanib] + Cn1nnc2c(C(N)=O)ncn2c1=O [temozolomide] (first compound 2 µM, partner dose 10 µM) | 84.4% | 44.9% | 80.1%
20 | O=C(/C=C/c1cccnc1)NCCCCC1CCN(C(=O)c2ccccc2)CC1 + C[C@@H](Oc1cc(-c2cnn(C3CCNCC3)c2)cnc1N)c1c(Cl)ccc(F)c1Cl [Crizotinib] (first compound 0.05 µM, partner dose 1 µM) | 83.1% | 94% | 123%
21 | O=C(/C=C/c1cccnc1)NCCCCC1CCN(C(=O)c2ccccc2)CC1 + COc1cc2c(Oc3ccc4[nH]c(C)cc4c3F)ncnc2cc1OCCCN1CCCC1 [cediranib] (first compound 0.05 µM, partner dose 2 µM) | 85.4% | 94.8% | 139%
22 | O=C(/C=C/c1cccnc1)NCCCCC1CCN(C(=O)c2ccccc2)CC1 + C=CCNC1=C2C[C@@H](C)C[C@H](OC)[C@H](O)[C@@H](C)/C=C(\C)[C@H](OC(N)=O)[C@@H](OC)/C=C\C=C(/C)C(=O)NC(=CC1=O)C2=O [Tanespimycin] (first compound 0.05 µM, partner dose 0.01 µM) | 77.9% | 71.7% | 80.3%
23 | Cc1ccc(Nc2nccc(N(C)c3ccc4c(C)n(C)nc4c3)n2)cc1S(N)(=O)=O [Pazopanib] + Nc1ncn([C@H]2C[C@H](O)[C@@H](CO)O2)c(=O)n1 [decitabine] (first compound 2 µM, partner dose 0.5 µM) | 81.7% | 87.9% | 87.9%
24 | Cc1ccc(Nc2nccc(N(C)c3ccc4c(C)n(C)nc4c3)n2)cc1S(N)(=O)=O [Pazopanib] + C[C@@H](Oc1cc(-c2cnn(C3CCNCC3)c2)cnc1N)c1c(Cl)ccc(F)c1Cl [Crizotinib] (first compound 2 µM, partner dose 1 µM) | 89.7% | 73.2% | 96.9%
25 | Cc1ccc(Nc2nccc(N(C)c3ccc4c(C)n(C)nc4c3)n2)cc1S(N)(=O)=O [Pazopanib] + Cc1ccc(NC(=O)c2cccc(N(C)C)c2)cc1NC(=O)c1ccc(O)cc1 [ZM336372] (first compound 2 µM, partner dose 10 µM) | 74.5% | 96.2% | 97.5%
26 | CC1(C)CCC(c2ccc(Cl)cc2)=C(CN2CCN(c3ccc(C(=O)NS(=O)(=O)c4ccc(N[C@H](CCN5CCOCC5)CSc5ccccc5)c(S(=O)(=O)C(F)(F)F)c4)cc3)CC2)C1 + Cc1ccc(Nc2nccc(N(C)c3ccc4c(C)n(C)nc4c3)n2)cc1S(N)(=O)=O [Pazopanib] (first compound 2 µM, partner dose 2 µM) | 50.9% | 95% | 63.7%
